Assay results taken from patent publication EP1042468B1.
Read-outs that look alike come from different tables or passages of the source.

Key:
[1] = test system: HEK 293 cells (transiently transfected with the lacZ gene expression vector pCMVβgal only); experiment: Whole-cell patch clamp of negative control HEK 293 cells; assay type: cell-based, Human; conditions: 1 µM; one cell with discernable current
[2] = target: T1, human neuronal calcium channel α1D, α2 and β1 subunits (Homo sapiens, UniProt Q01668); experiment: Two-electrode voltage clamp of oöcytes coinjected with α1D, α2 and β1 transcripts; assay type: cell-based; design: expressed in transfected cells; host or cells: Xenopus laevis oöcytes injected with in vitro transcripts (6 ng each)
[3] = target: T1, human neuronal calcium channel α1D, α2 and β1 subunits
[4] = target: T1, human neuronal calcium channel α1D, α2 and β1 subunits; experiment: Whole-cell patch clamp of HEK 293 cells stably transfected with calcium channel subunits; conditions: 1 µM

T1 sequence (Q01668 whole entry): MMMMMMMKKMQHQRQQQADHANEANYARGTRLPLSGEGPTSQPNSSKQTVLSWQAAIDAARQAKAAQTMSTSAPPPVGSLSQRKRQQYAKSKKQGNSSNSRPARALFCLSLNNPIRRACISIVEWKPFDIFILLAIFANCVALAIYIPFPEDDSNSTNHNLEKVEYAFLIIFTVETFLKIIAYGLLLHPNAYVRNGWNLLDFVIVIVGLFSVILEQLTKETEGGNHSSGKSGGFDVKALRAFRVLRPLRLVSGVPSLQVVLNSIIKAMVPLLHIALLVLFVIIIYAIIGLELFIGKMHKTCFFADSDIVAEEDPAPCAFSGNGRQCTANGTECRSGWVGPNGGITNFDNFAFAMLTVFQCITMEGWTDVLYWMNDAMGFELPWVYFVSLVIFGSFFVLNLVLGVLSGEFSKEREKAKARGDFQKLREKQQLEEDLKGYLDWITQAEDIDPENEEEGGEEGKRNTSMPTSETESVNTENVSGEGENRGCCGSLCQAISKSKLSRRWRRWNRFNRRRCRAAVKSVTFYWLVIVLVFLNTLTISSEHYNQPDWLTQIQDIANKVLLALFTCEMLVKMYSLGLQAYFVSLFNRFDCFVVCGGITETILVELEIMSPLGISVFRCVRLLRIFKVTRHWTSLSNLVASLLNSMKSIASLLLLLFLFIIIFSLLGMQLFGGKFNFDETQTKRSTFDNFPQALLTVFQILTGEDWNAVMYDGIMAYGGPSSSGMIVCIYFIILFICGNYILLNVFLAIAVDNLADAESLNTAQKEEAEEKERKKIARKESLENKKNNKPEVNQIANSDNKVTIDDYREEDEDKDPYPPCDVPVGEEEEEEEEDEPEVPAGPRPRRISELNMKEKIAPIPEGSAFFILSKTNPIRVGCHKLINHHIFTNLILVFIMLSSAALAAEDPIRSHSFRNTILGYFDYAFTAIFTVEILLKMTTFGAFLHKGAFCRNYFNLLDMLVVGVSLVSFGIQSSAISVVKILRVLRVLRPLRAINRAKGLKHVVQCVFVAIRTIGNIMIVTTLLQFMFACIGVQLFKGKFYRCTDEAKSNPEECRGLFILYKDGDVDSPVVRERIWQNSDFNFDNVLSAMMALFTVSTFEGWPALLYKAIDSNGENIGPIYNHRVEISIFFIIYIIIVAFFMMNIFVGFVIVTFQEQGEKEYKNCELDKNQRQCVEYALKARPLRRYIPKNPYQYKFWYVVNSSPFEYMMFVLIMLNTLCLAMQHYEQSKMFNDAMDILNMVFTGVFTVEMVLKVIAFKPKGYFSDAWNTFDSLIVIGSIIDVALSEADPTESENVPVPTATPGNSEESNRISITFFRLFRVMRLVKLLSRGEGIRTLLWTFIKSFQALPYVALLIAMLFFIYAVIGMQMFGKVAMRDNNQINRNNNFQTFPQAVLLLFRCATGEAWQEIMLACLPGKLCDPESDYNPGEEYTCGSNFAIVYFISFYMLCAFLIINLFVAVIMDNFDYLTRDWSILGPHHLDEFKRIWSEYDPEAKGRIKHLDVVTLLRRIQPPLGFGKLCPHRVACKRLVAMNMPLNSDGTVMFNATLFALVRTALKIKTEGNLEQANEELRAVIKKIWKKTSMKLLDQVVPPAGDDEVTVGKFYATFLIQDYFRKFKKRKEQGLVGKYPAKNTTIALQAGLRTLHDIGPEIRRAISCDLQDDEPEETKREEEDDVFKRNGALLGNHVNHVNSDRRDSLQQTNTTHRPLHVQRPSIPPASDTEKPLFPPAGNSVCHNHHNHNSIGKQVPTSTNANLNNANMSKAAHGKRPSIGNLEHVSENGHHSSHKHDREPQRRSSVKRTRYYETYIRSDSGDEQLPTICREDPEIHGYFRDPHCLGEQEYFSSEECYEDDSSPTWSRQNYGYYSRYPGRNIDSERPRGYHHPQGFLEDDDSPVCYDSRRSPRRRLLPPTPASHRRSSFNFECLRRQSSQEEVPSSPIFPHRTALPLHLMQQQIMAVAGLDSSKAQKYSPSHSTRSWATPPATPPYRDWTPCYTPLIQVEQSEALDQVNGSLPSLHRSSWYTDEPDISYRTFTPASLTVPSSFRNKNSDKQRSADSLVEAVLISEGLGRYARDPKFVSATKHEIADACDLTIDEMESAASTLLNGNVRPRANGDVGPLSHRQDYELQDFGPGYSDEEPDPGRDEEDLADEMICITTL

COC(=O)C1=C(C)NC(C)=C([N+](=O)[O-])C1c1ccccc1C(F)(F)F (centres unmarked) [Bay K 8644]
effect on inward barium current of control cell (in words) [1]: not affected
effect on currents (in words) ([2]; oöcytes, 40 mM BaCl2 bath): increased the magnitude of the currents
effect on inward barium current (in words) ([3]; 1 µM, holding potential -90 mV): significantly enhanced
shift of the entire current-voltage relation [4]: about -10 mV
current during application ([4]; depolarized to -10 mV from -90 mV, approximately 35pA in the absence): approximately 75 pA

[Cd+2] [Cd^2+]
block of inward barium current (in words) ([2]; 50 µM): blocked completely
block of inward barium current (in words) ([3]; 200 µM, ~50 pA current, depolarized from -90 mV): nearly completely blocked

[Ni+2] [Ni^2+]
inward barium current blocked ([2]; 100 µM): approximately 15%
